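Protocol summary: plate cells (96-well), add compound at 5 concentrations, incubate 48 h, interpolate endpoints linearly. GI50 = concentration required for 50% inhibition of growth. Definition used: TGI = concentration required for complete inhibition of growth.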

This test deals with NCI-H322M lung. As to the kind of experiment: NCI-60 cell line screen, 48 h.
With `CC[C@]12C=CCN3CC[C@@]4(c5ccc(OC)cc5N(C)[C@H]4[C@@](O)(C(=O)OC)[C@@H]1OC(C)=O)[C@@H]32`, the TGI is over 200 µM.

Turning to `COc1cc([C@@H]2c3cc4c(cc3C(O[C@@H]3O[C@@H]5CO[C@@H](c6cccs6)OC5[C@H](O)[C@H]3O)C3COC(=O)[C@@H]32)OCO4)cc(OC)c1O` (stereo not given in full), the GI50 was 0.963 µM and the TGI came out at 5.38 µM. `O=[N+]([O-])C(C(Cl)=C(Cl)Cl)=C(N1CCOCC1)N1CCOCC1` returned a TGI of over 100 µM. Same read-out and setting: the figure for `CCC1c2[nH]c3ccccc3c2C[C@H]2C(=O)NC(CCC(=O)OC(C)(C)C)C(=O)N12` (stereo not given in full) is over 100 µM.

`C=CCNc1ccc(C)cc1`: the TGI was over 100 µM. On the same count and under the same terms, next, `CCOCNC(=O)N(COCC)COCC`: over 100 µM; `CC(=O)OC[C@H]1[C@@H]2C(CC[C@]13CO3)OC(=O)CC(C)[C@]2(C)CCc1ccoc1` (stereo not given in full): over 100 µM. For the compound `N#C/C(C(=S)Nc1ccccc1)=C1/NN=C2c3ccccc3C(=O)NN21`, the GI50 was 33.7 µM and the TGI is over 100 µM. Consider `O=C(c1ccc(Cl)cc1Cl)N(C(=O)N1CCCCC1)c1ccccc1`, for which the TGI was over 100 µM. Compound `CCOc1cc(NC(C)=O)ccc1C(=O)NN1C(=O)C(Oc2ccccc2)C1c1ccc(O)c(OC)c1` (stereo not given) had a TGI of over 100 µM.

Compound `CC(=O)c1cccc2c1CC1(C2)Cc2ccc3c(c2C1=O)CCC3` (stereo not given) returned a TGI of over 100 µM. As to `COc1ccc(C2CC(=O)c3c(OC)cc(OC)cc3O2)cc1` (stereo not given), the GI50 is over 100 µM and the TGI was over 100 µM.

The compound `CC[N+](C)(CC)Cc1ccccc1[N+](=O)[O-]` had a TGI of over 100 µM. Turning to `COc1cc2c3c(n(CCCCl)c(=O)c2cc1OC)-c1ccccc1C3=O`, the GI50 is 66.6 µM and the TGI was over 100 µM. The compound `CCOC(=O)[C@H]1Nc2ccc(C)cc2C2c3ccccc3CC21` (stereo not given in full) displayed a TGI of over 100 µM.

`CC(=O)c1ccc(NC(=O)/C(Cc2ccccn2)=N/NC(=O)C[N+](C)(C)C)cc1` yielded a TGI of over 100 µM.

In turn, `COC(=O)C1(c2ccc(N(C)C)cc2OC)CCCN(C(=O)Oc2ccccc2[N+](=O)[O-])CCc2c1[nH]c1ccccc21` (stereo not given) displayed a TGI of over 100 µM.

Compound `COC(=O)CCC(=O)NC1c2cccc3cccc(c23)Cn2c(=O)n(C)c(=O)n21` (stereo not given) came in with a TGI of over 100 µM. On to `O=C(C[C@@H](C(=O)NCc1cccc(C(F)(F)F)c1)N1C(=O)[C@@H](N2C(=O)OC[C@@H]2c2ccccc2)[C@H]1/C=C/c1ccccc1)NC1CCN(Cc2ccccc2)CC1`, for which the GI50 is 15.8 µM and the TGI is 39.2 µM. The matching figures for `CC(C)CSc1nc(Nc2ccccc2)c(C#N)c(-c2ccc(F)cc2)n1`: 2.54 µM and 23 µM.

For `CC(C)CCN=c1cc2n(-c3ccc(Cl)cc3)c3ccccc3nc-2cc1Nc1ccc(Cl)cc1`, the TGI was 52.6 µM. Same read-out and setting: next, `COc1ccc2c(c1)CCCc1cn[nH]c1-2`: over 100 µM. Still for that read-out and setting: next, `CC(C)NC(=O)OCc1c(COC(=O)NC(C)C)c(-c2ccc[n+](COC(=O)CC(C)(C)C)c2)n2c1CCC2`: over 100 µM; `O=C(CCc1ccc(O)cc1)NCCc1ccc(O)cc1`: over 100 µM. In the case of `Cn1c(=O)c2c(nc(NCCCCl)n2CC(=O)NCCCCl)n(C)c1=O`, the TGI was over 100 µM. `CCCCCCCCCCCCCCCCOP(=O)(O)Oc1ccc(/C=C\c2ccc(OP(=O)(O)OCCCCCCCCCCCCCCCC)cc2)cc1`: the TGI was over 100 µM.

As for `CCCCCCCCCCCCCCCCCc1cccc(OCOCCOC)c1CO`, the TGI is over 100 µM. Consider `CCOC(=O)N/N=C(/N)Cc1ccccc1`, for which the TGI was over 100 µM. The same measure, in the same setting: next, `CCOC(=O)c1c(SC(=O)/C=C/c2ccccc2)n(-c2ccccc2)c(=S)n(-c2ccccc2)c1=O`: over 100 µM. Still for that read-out and setting: the figure for `COC(=O)CSc1n[nH]c(-c2ccc(O)c([N+](=O)[O-])c2)n1` is over 100 µM. For the compound `COc1ccc(C2CC(=O)c3c(O)c(OC)c(OC)c(OC)c3O2)c(O)c1` (stereo not given), the GI50 was 0.96 µM and the TGI came out at 40 µM. `CCCN=C(NC(=O)c1ccc(Cl)cc1)SC` had a TGI of over 100 µM. The same measure, in the same setting: next, `O=C1NC(Nc2cccc(Cl)c2)=N/C1=C\c1ccc(Cl)c(Cl)c1`: 15.7 µM.

As to `CC[C@@H]1/C=C/C=C/C[C@H](C)[C@@H](O)[C@](C)(O)C(=O)[C@H](C)[C@@H](O)[C@H](C)C(=O)[C@H](C)[C@@H](O)[C@H](C)/C=C/C(=O)O[C@H]2[C@@H](C)[C@@H](CC1)O[C@]1(O[C@H](CC(C)O)[C@H](C)CC1=O)[C@@H]2C` (stereo not given in full), the TGI was over 25 µM. Still for that read-out and setting: the figure for `CC1=CC(=O)NP(=O)(Oc2ccc(C)cc2)N1` (stereo not given) is over 100 µM. For `CC(C)(C)OC(=O)N(CCCN(CCn1c2c(c3ccccc3c1=O)C(=O)c1ccccc1-2)C(=O)OC(C)(C)C)CCn1c2c(c3ccccc3c1=O)C(=O)c1ccccc1-2`, the GI50 is over 50 µM and the TGI was over 50 µM. Regarding `CC(C)CC(N)C(=O)O` (stereo not given), the TGI was over 100 µM. As for `CC(=O)[O][Hg][c]1c(C)c(C)c(C)c(C)c1C`, the GI50 is 2.25 µM and the TGI worked out at 5.99 µM. The matching figures for `COc1ccc(-n2c(SCc3cc(OC)c(OC)c(OC)c3)nc3ccc(C)cc3c2=O)cc1`: over 100 µM and over 100 µM. In the same order, the values of `NC(N)=NC(N)=Nc1cc2ccccc2c2ccccc12` are 11.4 µM and 23.9 µM. The compound `Cc1oc2nc(N(C)C)nc(Cl)c2c1C` came in with a TGI of over 100 µM.

`O=P(O)(O)CN1CCN(CP(=O)(O)O)CCN(CP(=O)(O)O)CCN(CP(=O)(O)O)CC1`: the TGI was over 100 µM. As for `COC(=O)c1ccc2c(c1)n(Cc1ccc3ccccc3c1)c[n+]2Cc1ccc2ccccc2c1`, the GI50 is 1.6 µM and the TGI was determined as 4.57 µM. Take `CSc1ccc(/C=C2/C[N+](C)(C)C/C(=C/c3ccc(SC)cc3)C2=O)cc1`: the TGI was over 100 µM. As for `Cc1cc(NS(=O)(=O)c2ccc(NC(=O)c3cccc4c(=O)c5ccccc5[nH]c34)cc2)no1`, the TGI is over 100 µM. Still for that read-out and setting: next, `CN(CCCNc1ccc2ncn3c4ccccc4c(=O)c1c23)CCCN1C(=O)c2cccc3cc([N+](=O)[O-])cc(c23)C1=O`: 1.9 µM. In the case of `Cc1cc(C2CCCCC2)n(O)c(=O)c1`, the GI50 is 1.47 µM and the TGI was over 100 µM. The matching figures for `Cc1[nH]c(N=Nc2ccccc2)nc1N=Nc1ccccc1`: 2.28 µM and 9.02 µM.

`Nc1ccc(C(=O)Nn2c(-c3ccccc3)nc3ccccc3c2=O)cc1` yielded a TGI of over 100 µM. `O=C(O)C(Sc1ccc(Cl)cc1)Sc1ccc(Cl)cc1` registered a TGI of over 100 µM. For the compound `Cc1ccc2nc3ccccc3c(C3C4C(=O)N(c5ccc(Br)cc5Cl)C(=O)C4ON3C(C(N)=O)c3ccccc3)c2c1` (stereo not given), the TGI is over 25 µM. On the same count and under the same terms, next, `O=C(CNc1ccc(Cl)cc1)Nn1c(-c2ccccc2)nc2ccccc2c1=O`: 28.7 µM. Turning to `Oc1ccc2ccccc2c1N=Nc1ccc(F)cc1`, the TGI is over 100 µM.

Regarding `NCCCCn1c2c(c3ccccc3c1=O)C(=O)c1ccccc1-2`, the GI50 was 0.376 µM and the TGI stood at 2.05 µM. `COc1cc([N+](=O)[O-])ccc1NC(=O)C(F)(F)F` displayed a TGI of over 100 µM. Consider `COc1cc(Cn2c(-c3ccccc3)cc3c2-c2oncc2CC3)cc(OC)c1OC`, for which the GI50 was 46.5 µM and the TGI is over 100 µM. In the same order, the values of `COc1cccc(N=Cc2c3ccccc3c(=O)n3c2oc2ccccc23)c1` are 3.08 µM and 36.3 µM.

`N#Cc1cnsc1` registered a TGI of over 100 µM. Still for that read-out and setting: next, `CSc1nc(Cl)c2c(n1)Sc1nc3cc4c(cc3n1C2O)OCO4` (stereo not given): over 100 µM; `CCOC(=O)NC(Nc1ccc(S(=O)(=O)Nc2ncccn2)cc1)(C(=O)OCC)C(F)(F)F` (stereo not given): over 100 µM; `O=C(O)c1cc(N=Nc2ccc([As](=O)(O)O)cc2)ccc1O`: over 100 µM.

On to `O=[N+]([O-])c1ccc2nnnn2c1`, for which the TGI was 88 µM. Still for that read-out and setting: next, `C=C1CC[C@@]2(OC1)OC1C[C@H]3[C@@H]4CC=C5C[C@@H](O)CC(OC6OCC(OC(=O)[C@@H](O)[C@@H](C)CC)C(OC(C)=O)C6OC6OC(C)C(O)C(O)C6O)[C@]5(C)[C@H]4CC[C@]3(C)C1[C@@H]2C` (stereo not given in full): 8.41 µM. In the case of `CC[C@H](C)[C@H](NC(=O)[C@H]1CCCCN1C)C(=O)N(C)[C@H](CCc1nc(C(=O)N[C@@H](Cc2ccccc2)C[C@H](C)C(=O)OC)cs1)C(C)C`, the GI50 is 1.3 µM and the TGI was over 25 µM. Compound `NCCc1nc(-c2nc(C(=O)O)cs2)cs1` had a TGI of over 100 µM. On to `COc1cccc(NCc2nnc(Nc3ccc(Cl)cc3)c3ccccc23)c1`, for which the GI50 was 1.4 µM and the TGI was determined as 7.85 µM. Compound `CC1=CC(=O)NCCN1C` came in with a TGI of over 100 µM.

Regarding `COc1ccc(-c2c(C(C)=O)c(-c3ccccc3)n(C3OC(COC(C)=O)C(OC(C)=O)C(OC(C)=O)C3OC(C)=O)c(=S)c2C#N)cc1` (stereo not given), the TGI was over 100 µM. `CC(=O)OCC1OC(N2C(c3ccccc3)=CC(c3ccccc3)C(C#N)=C2S)C(OC(C)=O)C(OC(C)=O)C1OC(C)=O` (stereo not given) displayed a TGI of over 100 µM. The same measure, in the same setting: next, `Brc1ccc2c(-c3nc(-c4c[nH]c5ccc(Br)cc45)cs3)c[nH]c2c1`: 15.9 µM. The compound `CC(C(=O)N1c2ccccc2Sc2ccccc21)N1c2ccccc2Sc2ccccc21` (stereo not given) came in with a TGI of over 100 µM. `CC(=O)NC(CCCN)C(=O)NCc1ccccc1` (stereo not given) yielded a TGI of over 100 µM.

In turn, `Cc1cccc(N2C(=O)C(Cl)=C(Cl)C2=O)c1` showed a TGI of over 100 µM. On the same count and under the same terms, next, `Cc1ccccc1Nc1cn(COCc2ccccc2)c(=O)[nH]c1=O`: over 100 µM.

`N#[O+].O=S(=O)([O-])[O-].[NH2-].[NH2-].[NH2-].[NH2-].[NH2-].[Ru+5]` gave a TGI of over 100 µM. The compound `CCOC(=O)C(Cl)(NC(=O)c1ccc(F)cc1)C(F)(F)F` (stereo not given) displayed a TGI of over 100 µM. For `Cc1[nH]c(=O)[nH]c(=S)c1C(=O)NC(C)(CO)CO`, the TGI is over 100 µM.

Take `CNC1C(=O)C(C)C(O)(C(CC(C)C(O)/C=C/C=C/CNC(=O)C(C)(C)C(O)\C(C)=C/C=C\C=C\Cc2cnc(C)o2)OC)C12C(=O)OC2COC` (stereo not given) (tested in a mixture with another compound): the TGI is over 100 µM.

Compound `O=c1[nH]c(=O)n(C2CC(O)C(CS)O2)cc1F` (stereo not given) came in with a TGI of over 100 µM.

In the case of `CO/N=C(\C(=O)Nc1cncs1)c1csc(NC(c2ccccc2)(c2ccccc2)c2ccccc2)n1`, the TGI was over 10 µM. The same measure, in the same setting: next, `O=P(c1ccccc1)(c1ccccc1)C(NCc1ccccc1)c1ccc(F)cc1` (stereo not given): 28.8 µM.

The record behind these values is PubChem BioAssay (NCI).
